Hit rate of the full screen: of about 390,000 compounds, about 930 (0.24%) were called active. Inconclusive results, whose numbers are uncertain, are shown with a selection of clear calls. Calls come from the whole dose curve; as a rule, active = well fitted activation curve with a large enough effect; inconclusive = small, poorly fitted or top-dose-only effect; inactive = no such curve, though single readings can be large or run the other way. A potency beside an inconclusive call is a rough fit, not a confirmed value.
Experiment: qHTS for Suppressors of FUS Proteinopathy: Primary screen using FUS-linked yeast assay; note: nearly all actives have a fitted effect of over 55% in size;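 for growth rescue (activation): plate controls were DMSO vehicle for no effect and reference control for full effect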
Settings: S. cerevisiae FUS-expressing, OD600, 24 h; Potency: growth rescue; growth rescue (activation): at 76.6 µM (top of the series)
Summary of the method: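 Restored growth of FUS-toxic S. cerevisiae, read as 600 nm absorbance after 24 h at 30C in galactose medium (starting OD 0.005). Controls CP55940 and DMSO.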
Potency is the fitted concentration of half-maximal effect; tags give direction and shape of the fitted curve.

SMILES	growth rescue (activation)	Potency
S=C1SCN(Cc2cccnc2)CN1Cc1cccnc1	inactive: -3.65%	–
Cc1ccc2cccc(NC(=O)COc3ccccc3Cl)c2n1	inactive: 3.11%	–
Cc1ccc(-c2nc(CS(=O)CC(=O)N3CCN(c4cccc(Cl)c4)CC3)c(C)o2)cc1 (stereo unspecified)	–	inconclusive: 11.2 µM [activator, partial curve, poor fit]
O=c1c(Cl)c(Cl)cnn1-c1ccccc1	inactive: 29.5%	–
O=C(CN1CCN(CC(=O)Nc2ccccc2C(F)(F)F)CC1)Nc1ccccc1F	inactive: -22.4%	–
COc1cc(/C=N\NC(=O)C2COc3ccccc3O2)cc(OC)c1O (stereo unspecified)	inactive: 1.6%	–
CCc1cccc(NC(=O)CN2Cc3ccccc3C2=O)c1	inactive: -17.9%	–
COc1ccc(CN2CCc3c(c(=O)n4ncc(C(=O)N5CCN(c6ccc(F)cc6)CC5)c4n3C)C2)cc1	–	inconclusive: 31.6 µM [activator, single point]
COc1ccc(-c2nnc(SCC(=O)NC3CCCCC3)nc2-c2ccc(OC)cc2)cc1	–	inconclusive: 50.1 µM [activator, single point]
CCCc1cc(C(=O)N2CCCC(C(=O)c3cc(C)c(OC)c(C)c3)C2)n(C)n1 (stereo unspecified)	–	inconclusive: 35.5 µM [activator, single point]
COC(=O)c1cc(NC(=O)CC(=O)c2cccc(N)c2)cc(C(=O)OC)c1	–	inconclusive: 25.1 µM [activator, single point]
C=CCN1[C@@H](Cc2ccccc2)COc2cc(N3CCSCC3)ccc2S1(=O)=O	–	inconclusive: 50.1 µM [activator, single point]
COc1ccc(C(=O)Nc2ccc3c(c2)CCCN3C(=O)c2cccs2)c(OC)c1	–	inconclusive: 35.5 µM [activator, single point]
Cc1ccc(NC(=O)CN2CCN(S(=O)(=O)c3cccs3)CC2)cc1S(=O)(=O)N(C)C	inactive: 39.9%	–
O=C(Cn1c(=O)n(Cc2ccc3c(c2)OCO3)c(=O)c2oc3ccccc3c21)Nc1ccccc1F	inactive: 3.82%	–
Cc1ccc(CNc2ncnc3onc(-c4ccc(F)cc4)c23)cc1	inactive: -7.87%	–
COc1ccc(C(=O)CN(C(=O)c2ccc(Cl)cc2)N2C(=O)c3ccccc3C2=O)cc1	–	inconclusive: 31.6 µM [activator, partial curve, poor fit]
CCOc1ccc(NC(=O)Cn2c(=O)c(CNc3ccc(CC)cc3)cc3cc4c(cc32)OCO4)cc1	inactive: -3.41%	–
O=C(Nc1ccc(N2CCN(C(=O)c3ccccc3)CC2)cc1)c1ccc2c(c1)OCO2	–	inconclusive: 25.1 µM [activator, single point]
COc1ccc(OCCCn2cccc2/C=C2/C(=N)N3OC(C)=CC3=NC2=O)cc1	–	inconclusive: 50.1 µM [activator, single point]
CCCS(=O)(=O)N1CC(=O)N(c2ccc(C)cc2)C(C)(C(=O)NC2CCCCCC2)C1 (stereo unspecified)	inactive: 2.14%	–

SMILES	growth rescue (activation)	Potency
O=C(NCCc1ccccc1Cl)c1ccc2c(=O)n(-c3ccccc3)c(=O)[nH]c2c1	inactive: -2.33%	–
CC1(C(=O)Nc2cccc3cccnc23)CCN1C(=O)CC1CC1 (stereo unspecified)	inactive: 14.7%	–
O=C(O)CN1C(=O)/C(=C\c2cc(Br)ccc2OCc2ccc([N+](=O)[O-])cc2)SC1=S	–	inconclusive: 35.5 µM [activator, single point]
Cc1ccccc1Cc1c(C)nc2c(C(=O)NCc3ccco3)cnn2c1C	–	inconclusive: 50.1 µM [activator, partial curve, poor fit]
CCCCNC(=O)C[C@@H]1C[C@@]2(C(=O)OC)CCCCC=C2N(Cc2cccc3ccccc23)C1=O	–	inconclusive: 28.2 µM [activator, single point]
CCN(c1ccccc1)S(=O)(=O)c1ccc(Cl)c(NC(=O)Nc2ccc(Cl)cc2C#N)c1	–	inconclusive: 50.1 µM [activator, single point]
Cc1ccc(OCc2nnc(SCC(=O)Nc3ccccc3-c3ccccc3)n2Cc2ccco2)cc1	–	inconclusive: 17.8 µM [activator, partial curve]
CCC1(c2ccc(F)cc2)NC(=O)N(CC(=O)N2CCN(S(=O)(=O)c3ccc(C)cc3C)CC2)C1=O (stereo unspecified)	–	inconclusive: 25.1 µM [activator, single point]
Cc1ccnc2nc(C(=O)NC3=NCCS3)nn12	–	inconclusive: 11.2 µM [activator, partial curve, poor fit]
O=C(Cn1c(SCCOc2ccc(Cl)cc2)nc2ccccc21)N1CCCCC1	–	inconclusive: 28.2 µM [activator, single point]
COC(=O)[C@]12C[C@H](CC(=O)N3CCSCC3)C(=O)N(Cc3ccco3)C1=C[C@H](C1CCCC1)O[C@@H]2C	–	inconclusive: 2.24 µM [activator, full curve]
OCCOCCn1c(C2CCCN2c2nc(-c3ccc(F)cc3)cs2)nc2cc(Cl)c(Cl)cc21 (stereo unspecified)	–	inconclusive: 28.2 µM [activator, single point]
Cc1ccc(-c2cc(-c3n[nH]c(=S)o3)c3ccccc3n2)cc1	inactive: -1.12%	–
COCCCNC(=O)CSc1nc2ccc(N3CCOCC3)cc2c(=O)n1CCc1ccccc1	–	inconclusive: 28.2 µM [activator, partial curve, poor fit]
CCCn1c(C)cc(/C=C(\C#N)C(=O)OCC(=O)Nc2cccc(S(N)(=O)=O)c2)c1C	–	inconclusive: 22.4 µM [activator, partial curve]
COc1cc(C(=O)NCCNC(=O)c2ccco2)cc(OC)c1OC	–	inconclusive: 31.6 µM [activator, partial curve, poor fit]
Cc1cccc(N2CCN(C(=O)c3cc4c(=O)n(C)c5ccccc5c4s3)CC2C)c1 (stereo unspecified)	inactive: -23.9%	–
O=C(NC(=S)Nc1ccccc1N1CCCCC1)c1ccccc1	inactive: 8.49%	–
Cc1sc2ncn(CC(=O)N3CCN(c4cccc(Cl)c4)CC3)c(=O)c2c1S(=O)(=O)N1CCN(c2ncccn2)CC1	–	inconclusive: 25.1 µM [activator, partial curve, poor fit]
COc1ccccc1N1CCN(S(=O)(=O)CCNC(=O)COc2ccc(C(C)C)cc2)CC1	–	inconclusive: 15.8 µM [activator, single point]

From PubChem BioAssay AID1347120 (National Center for Advancing Translational Sciences (NCATS), 2019)
